This is an account of results in publication PMC4336329 (PLoS ONE, 2015).

The whole screen tested about 310,000 compounds, of which about 14,000 (4.5%) showed an effect of 50% or more. The effect is printed as a negative number. Some of the results follow.
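Note: peak tail current of the secondary pulse compared with the same well before compound.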

This assay deals with human ether-à-go-go-related gene (hERG) potassium channel (human, UniProt Q12809). The assay is described as follows: primary screen, population patch clamp on CHO cells stably expressing hERG.
human ether-à-go-go-related gene (hERG) potassium channel, sequence (Q12809 whole entry, looked up): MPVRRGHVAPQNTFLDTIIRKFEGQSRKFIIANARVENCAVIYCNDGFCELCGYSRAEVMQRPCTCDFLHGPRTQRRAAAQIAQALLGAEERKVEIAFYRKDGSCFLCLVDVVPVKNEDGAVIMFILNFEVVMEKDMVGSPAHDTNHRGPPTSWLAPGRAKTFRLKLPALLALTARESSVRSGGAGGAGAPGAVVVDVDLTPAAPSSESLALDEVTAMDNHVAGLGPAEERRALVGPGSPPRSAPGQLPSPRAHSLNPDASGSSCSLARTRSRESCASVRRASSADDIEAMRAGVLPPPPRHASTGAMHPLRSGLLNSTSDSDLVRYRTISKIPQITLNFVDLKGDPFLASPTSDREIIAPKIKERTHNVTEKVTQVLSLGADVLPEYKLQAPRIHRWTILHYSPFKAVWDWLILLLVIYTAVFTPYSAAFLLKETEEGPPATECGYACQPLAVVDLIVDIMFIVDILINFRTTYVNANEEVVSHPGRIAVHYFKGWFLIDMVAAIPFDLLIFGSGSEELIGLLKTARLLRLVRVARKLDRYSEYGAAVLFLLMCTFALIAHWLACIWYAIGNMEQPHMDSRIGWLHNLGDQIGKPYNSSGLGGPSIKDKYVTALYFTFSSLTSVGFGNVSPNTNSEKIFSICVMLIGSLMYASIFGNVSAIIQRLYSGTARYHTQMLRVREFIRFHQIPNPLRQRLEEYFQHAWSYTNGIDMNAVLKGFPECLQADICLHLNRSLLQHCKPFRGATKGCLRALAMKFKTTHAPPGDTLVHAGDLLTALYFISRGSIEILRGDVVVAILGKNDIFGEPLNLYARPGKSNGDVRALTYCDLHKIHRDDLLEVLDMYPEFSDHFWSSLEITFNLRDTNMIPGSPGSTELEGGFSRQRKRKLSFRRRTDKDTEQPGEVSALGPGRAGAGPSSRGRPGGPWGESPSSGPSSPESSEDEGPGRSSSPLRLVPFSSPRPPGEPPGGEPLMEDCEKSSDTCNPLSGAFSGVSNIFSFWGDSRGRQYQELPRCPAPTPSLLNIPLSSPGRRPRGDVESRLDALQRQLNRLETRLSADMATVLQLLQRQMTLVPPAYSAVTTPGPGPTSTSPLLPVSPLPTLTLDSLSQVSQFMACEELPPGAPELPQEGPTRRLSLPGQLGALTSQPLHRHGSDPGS
Consider `COc1cc(Cl)cc(C2NC(=O)NC(C)=C2C(C)=O)c1OCC(=O)O` (stereo not shown), for which the “hERG current change (%, negative = inhibition) at 10uM” value was -1.87%. As to `CCOC(=O)C1CCN(C(=O)CN(c2ccc(OC)cc2)S(=O)(=O)c2c(C)noc2C)CC1`, the “hERG current change (%, negative = inhibition) at 10uM” value is -21.2%. On to `CCc1nc(N)c(C#N)c(-c2ccncc2)c1C`, for which the “hERG current change (%, negative = inhibition) at 10uM” value was 0.543%. Then `CCOC(=O)c1ccc(NC(=O)CNC(=O)c2ccccc2)cc1`, with 2.53%. Turning to `Cc1cc(N/N=C/c2c[nH]c3ccccc23)c2ccccc2n1`, the “hERG current change (%, negative = inhibition) at 10uM” value is 14.2%.

Regarding `O=C(NC1CCCCC1)c1cc([N+](=O)[O-])[nH]n1`, the “hERG current change (%, negative = inhibition) at 10uM” value is listed as -21.2%.

For the compound `CCOC(=O)C1=C(C)NC(C)=C(C(=O)OCC)C1c1ccc(C)o1`, the “hERG current change (%, negative = inhibition) at 10uM” value was -5.8%. For `COc1ccc(NC(=O)N2CCN(C(=O)C(Cc3ccc(F)cc3)NC(C)=O)CC2)cc1` (stereo not shown), the “hERG current change (%, negative = inhibition) at 10uM” value was -9.37%.

Turning to `CCOC(=O)CCC(NC(=O)CC(=O)NC(CCC(=O)OCC)C(=O)OCC)C(=O)OCC` (stereo not shown), the “hERG current change (%, negative = inhibition) at 10uM” value is reported as 17.3%.

Consider `Cc1nc2c(cnn2-c2ccccc2)c(=O)[nH]1`, for which the “hERG current change (%, negative = inhibition) at 10uM” value is on record as 28.7%. On to `CCc1ccc(-c2cc(C)no2)cc1S(=O)(=O)N1CCOc2ccccc21`, for which the “hERG current change (%, negative = inhibition) at 10uM” value is -6.97%. Regarding `N=c1c(S(=O)(=O)c2ccc(Br)cc2)cc2c(=O)n3ccccc3nc2n1Cc1ccco1`, the “hERG current change (%, negative = inhibition) at 10uM” value came to 7.31%. With `O=[N+]([O-])c1ccc(O)c(-c2cc(C(F)(F)F)nc(-c3ccccc3)n2)c1`, the “hERG current change (%, negative = inhibition) at 10uM” value was found to be 15.5%. On to `O=C(NCCc1ccccc1)C(=O)NCC1OCCN1S(=O)(=O)c1ccc(Br)cc1` (stereo not shown), for which the “hERG current change (%, negative = inhibition) at 10uM” value was determined as 0.157%. Consider `O=C(Nc1ccc(NC(=O)c2cccs2)cc1)c1ccc2c(c1)OCCO2`, for which the “hERG current change (%, negative = inhibition) at 10uM” value is 15.6%.

In the case of `COC(=O)C(C(=O)OC)C(C)C(C(=O)OC)C(=O)OC`, the “hERG current change (%, negative = inhibition) at 10uM” value worked out at 9.86%.

`CC(C)Oc1cccc(C(=O)NC(=S)NCc2cccnc2)c1`: the “hERG current change (%, negative = inhibition) at 10uM” value is -28%. On to `Cc1nn2c(NCCOCCO)c3c(nc2c1-c1ccccc1)CCC3`, for which the “hERG current change (%, negative = inhibition) at 10uM” value is recorded as -50.2%.

For the compound `Cc1cc(C)c(OCC(=O)NCC(C)(C)N2CCOCC2)c(C)c1`, the “hERG current change (%, negative = inhibition) at 10uM” value is listed as -32.7%.

As to `CNC(=O)CN(c1cccc(Br)c1)S(C)(=O)=O`, the “hERG current change (%, negative = inhibition) at 10uM” value is -11.4%. On to `COc1ccc(NCc2nnc(SCC(=O)N3CCCc4ccccc43)n2C)cc1`, for which the “hERG current change (%, negative = inhibition) at 10uM” value is given as -20.8%. Consider `CCOc1cc(C(=O)NC(=S)Nn2cnnc2)cc(OCC)c1OCC`, for which the “hERG current change (%, negative = inhibition) at 10uM” value is 17.2%. Take `S=C1NCN(Cc2cccnc2)CN1Cc1ccccc1`: the “hERG current change (%, negative = inhibition) at 10uM” value was determined as 22.8%. For `O=S(=O)(c1ccc(F)cc1)N1CCN(C(=S)NCC2CCCO2)CC1` (stereo not shown), the “hERG current change (%, negative = inhibition) at 10uM” value was -30.8%. Turning to `COc1ccc(/C=N/NC(=O)c2sc3nc(C)cc(C)c3c2N)cc1`, the “hERG current change (%, negative = inhibition) at 10uM” value is recorded as 16.4%. As to `COc1ccc(-c2csc(NCCc3nc4cc(C(=O)NCCCO)ccc4n3Cc3ccc(C)cc3)n2)cc1`, the “hERG current change (%, negative = inhibition) at 10uM” value stood at 7.19%. Take `N#CCSc1nnc2ccc3ccccc3n12`: the “hERG current change (%, negative = inhibition) at 10uM” value is reported as 2.46%.

On to `Cl.N=C(N)SCc1ccccc1Cl`, for which the “hERG current change (%, negative = inhibition) at 10uM” value was 31%. As to `CCOc1ccc2cc(S(=O)(=O)n3ccnc3C)ccc2c1`, the “hERG current change (%, negative = inhibition) at 10uM” value is 10.1%. Take `O=C(NCC(=O)N(c1ccccc1)C(C(=O)NC1CCCC1)c1cccnc1)c1cccs1` (stereo not shown): the “hERG current change (%, negative = inhibition) at 10uM” value was 7.61%. Take `CC1(C)CN(c2ccccc2)N(C(=O)c2ccc(F)cc2)C1=O`: the “hERG current change (%, negative = inhibition) at 10uM” value is -1.02%. For the compound `Cc1cccc(S(=O)(=O)CC(=O)Nc2nc(-c3ccccc3)cs2)c1`, the “hERG current change (%, negative = inhibition) at 10uM” value is on record as -13.8%. `CCC1CCCCN1C(=O)c1cccc(S(=O)(=O)Nc2cc(C(F)(F)F)ccc2Cl)c1` (stereo not shown): the “hERG current change (%, negative = inhibition) at 10uM” value is reported as 2.59%. Take `CC(OC(=O)c1ccccc1NCCO)C(=O)NCC(=O)Nc1ccc(F)c(F)c1F` (stereo not shown): the “hERG current change (%, negative = inhibition) at 10uM” value is 8.89%. Consider `COc1ccc(Cl)cc1NC(=O)COc1cccc(-n2cnnn2)c1`, for which the “hERG current change (%, negative = inhibition) at 10uM” value is listed as 10.3%. Regarding `CCC(CC)C(=O)NC12CC3CC(CC(C3)C1)C2`, the “hERG current change (%, negative = inhibition) at 10uM” value turned out to be 5.15%.

Regarding `CS(=O)(=O)c1ccc2nc(NC(=O)CN3CCN(Cc4ccccc4)CC3)sc2c1`, the “hERG current change (%, negative = inhibition) at 10uM” value is given as -39.8%. Then `Fc1ccccc1-c1cc2ncccc2cn1`, with 5.27%; and `COc1cccc(C(=O)NC(c2ccccc2)C2CCCC2)c1` (stereo not shown), with 6.54%.

`NC(=O)C1CCN(Cc2nc3c(Br)cc(Br)cc3c(=O)[nH]2)CC1`: the “hERG current change (%, negative = inhibition) at 10uM” value is reported as -35.8%. Consider `O=C(CCn1c(=O)sc2ccccc21)Nc1ccon1`, for which the “hERG current change (%, negative = inhibition) at 10uM” value came out at 1.91%. In the case of `Cc1ccc(C(=O)c2cnc3ccccc3c2-c2ccccc2)cc1`, the “hERG current change (%, negative = inhibition) at 10uM” value is -5.7%. In the case of `COc1ccc(Nc2nc(N)c3ccccc3n2)c(OC)c1.Cl`, the “hERG current change (%, negative = inhibition) at 10uM” value is recorded as -14.9%.
